Whole data set: some 33,000 sequences, median “E-score (-0.5 to 0.5)” near -0.012, cut for the highest 2% near 0.29. The list shows a part of the results.
Molecular target: T1, Ybr033w (UniProt P38073)
T1 sequence: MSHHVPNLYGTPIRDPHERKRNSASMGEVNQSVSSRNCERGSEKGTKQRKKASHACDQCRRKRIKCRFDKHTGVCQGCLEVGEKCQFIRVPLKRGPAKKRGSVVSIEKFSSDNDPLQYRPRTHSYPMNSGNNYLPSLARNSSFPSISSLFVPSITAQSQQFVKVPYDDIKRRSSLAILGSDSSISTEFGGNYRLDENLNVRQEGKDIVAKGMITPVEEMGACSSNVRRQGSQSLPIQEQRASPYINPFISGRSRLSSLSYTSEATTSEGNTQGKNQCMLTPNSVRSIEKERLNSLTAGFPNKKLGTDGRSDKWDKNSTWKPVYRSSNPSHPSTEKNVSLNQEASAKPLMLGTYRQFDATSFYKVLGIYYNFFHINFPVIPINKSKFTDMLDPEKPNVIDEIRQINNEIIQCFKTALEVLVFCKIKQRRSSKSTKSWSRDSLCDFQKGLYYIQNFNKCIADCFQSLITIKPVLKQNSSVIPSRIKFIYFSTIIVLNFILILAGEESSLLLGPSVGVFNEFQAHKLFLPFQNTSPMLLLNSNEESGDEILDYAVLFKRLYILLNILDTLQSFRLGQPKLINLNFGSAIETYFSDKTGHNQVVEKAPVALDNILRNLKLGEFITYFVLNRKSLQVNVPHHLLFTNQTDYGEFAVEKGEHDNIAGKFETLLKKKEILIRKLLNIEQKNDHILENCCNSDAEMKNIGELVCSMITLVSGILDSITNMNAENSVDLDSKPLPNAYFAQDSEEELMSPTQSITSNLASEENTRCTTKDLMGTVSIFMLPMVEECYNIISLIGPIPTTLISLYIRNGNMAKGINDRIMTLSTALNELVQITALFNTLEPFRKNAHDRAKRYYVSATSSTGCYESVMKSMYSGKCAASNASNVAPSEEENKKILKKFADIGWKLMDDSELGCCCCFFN
Experiment: PBM E-score (8-mer binding enrichment) (E-score (-0.5 to 0.5)); higher = stronger / more preferred TF binding; most listed sequences are background and not binding sites
Conditions: protein concentration: 200 nM; construct: GST-full length
Method: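 Universal 'all 10-mer' protein binding microarrays (Agilent AMADID 015681) probed with GST-tagged S. cerevisiae TFs (full-length or DBD) made by in vitro transcription/translation (PURExpress), about 100-200 nM. Bound TF was detected with fluorescent anti-GST. Each ungapped 8-mer (which stands for itself and its reverse complement) is scored by the PBM enrichment score (E-score), a modified Wilcoxon-Mann-Whitney statistic from -0.5 to +0.5, computed with the Universal PBM Analysis Suite. Scale: above 0.35 generally sequence-specific binding.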

Question: How did the “PBM E-score” value turn out when AGGTTCAC was run?
Answer: 0.00758

Question: AGCGAGCT was tested. Which “PBM E-score” value did it give?
Answer: 0.0856

Question: With CGCGTGAG as the sequence, how does the “PBM E-score” value read?
Answer: 0.0421

Question: Which “PBM E-score” value does the source give for AAACTACT here?
Answer: 0.21

Question: GACCGGTA was tested. Which “PBM E-score” value did it give?
Answer: -0.384

Question: With CGTTGATC as the sequence, how does the “PBM E-score” value read?
Answer: 0.00866

Question: How did the “PBM E-score” value turn out when GAGGAGCC was run?
Answer: -0.175

Question: For CCTAGCCC, which “PBM E-score” value is on record?
Answer: -0.227

Question: With AAAGATGT as the sequence, how does the “PBM E-score” value read?
Answer: 0.197

Question: For CACAGGCA, which “PBM E-score” value is on record?
Answer: -0.184

Question: Which “PBM E-score” value does the source give for AACGGAGA here?
Answer: -0.0619

Question: How did the “PBM E-score” value turn out when ATATCGCG was run?
Answer: 0.135

Question: GGCAGTCA was tested. Which “PBM E-score” value did it give?
Answer: -0.0478

Question: With CAAGGCTG as the sequence, how does the “PBM E-score” value read?
Answer: -0.159

Question: For CATTCACC, which “PBM E-score” value is on record?
Answer: 0.136

Question: With CGTGCGTC as the sequence, how does the “PBM E-score” value read?
Answer: -0.109

Question: CAGGAAAG was tested. Which “PBM E-score” value did it give?
Answer: -0.182

Question: With CCTAAAAG as the sequence, how does the “PBM E-score” value read?
Answer: -0.226

Question: Which “PBM E-score” value does the source give for GGTAACTA here?
Answer: 0.094

Question: How did the “PBM E-score” value turn out when CGGCCGGC was run?
Answer: -0.254

Question: AACGTACA was tested. Which “PBM E-score” value did it give?
Answer: 0.181

Question: For ACTGTGGC, which “PBM E-score” value is on record?
Answer: -0.246

Question: With ACGCGTGA as the sequence, how does the “PBM E-score” value read?
Answer: 0.0314

Question: Which “PBM E-score” value does the source give for AGCTGTCA here?
Answer: 0.0747

Question: For AACGGCTC, which “PBM E-score” value is on record?
Answer: -0.0166

Question: How did the “PBM E-score” value turn out when CTCCACTC was run?
Answer: -0.194

Question: Which “PBM E-score” value does the source give for CGCCTTAG here?
Answer: -0.231

Question: For CACAGGGA, which “PBM E-score” value is on record?
Answer: -0.127

Question: CGTTCGGA was tested. Which “PBM E-score” value did it give?
Answer: 0.222

Question: Which “PBM E-score” value does the source give for CAGAAACC here?
Answer: 0.00756

Question: For AACGCCCA, which “PBM E-score” value is on record?
Answer: 0.0152

Question: AGGTAAAC was tested. Which “PBM E-score” value did it give?
Answer: 0.139

Question: Which “PBM E-score” value does the source give for AGCTCTAT here?
Answer: -0.116

Question: With CATATCCG as the sequence, how does the “PBM E-score” value read?
Answer: 0.12

Question: With GAATCCAC as the sequence, how does the “PBM E-score” value read?
Answer: -0.0914

Question: Which “PBM E-score” value does the source give for CGTGCAAG here?
Answer: -0.141

Question: How did the “PBM E-score” value turn out when CAACGTGC was run?
Answer: -0.0126

Question: AGCACCAT was tested. Which “PBM E-score” value did it give?
Answer: -0.202

Question: With CTCCGTCC as the sequence, how does the “PBM E-score” value read?
Answer: -0.194

Question: ATATAGCG was tested. Which “PBM E-score” value did it give?
Answer: 0.0143

Question: With CTTAATTC as the sequence, how does the “PBM E-score” value read?
Answer: 0.257

Question: For GGATCACC, which “PBM E-score” value is on record?
Answer: -0.213

Question: GACAGCGA was tested. Which “PBM E-score” value did it give?
Answer: -0.0967

Question: How did the “PBM E-score” value turn out when GGAATCCC was run?
Answer: -0.0201

Question: ACCTATTG was tested. Which “PBM E-score” value did it give?
Answer: 0.0958

Question: How did the “PBM E-score” value turn out when GTACGACA was run?
Answer: -0.00798

Question: How did the “PBM E-score” value turn out when ATCACCCA was run?
Answer: 0.0281

Question: Which “PBM E-score” value does the source give for GGTTATTA here?
Answer: 0.149

Question: Which “PBM E-score” value does the source give for AGCACCCG here?
Answer: -0.123

Question: Which “PBM E-score” value does the source give for GCGGCTCC here?
Answer: -0.245

Question: For CGCTTAGC, which “PBM E-score” value is on record?
Answer: -0.137

Question: Which “PBM E-score” value does the source give for ACGAATAT here?
Answer: 0.295

Question: CCGTGGCA was tested. Which “PBM E-score” value did it give?
Answer: -0.242

Question: How did the “PBM E-score” value turn out when CAGTCTGC was run?
Answer: -0.187

Question: How did the “PBM E-score” value turn out when GGGGCTTA was run?
Answer: -0.357

Question: Which “PBM E-score” value does the source give for AGGGACAC here?
Answer: 0.0135

Question: How did the “PBM E-score” value turn out when ACTTCACG was run?
Answer: -0.102

Question: For ACTTTAGA, which “PBM E-score” value is on record?
Answer: 0.112

Question: AGCGACGC was tested. Which “PBM E-score” value did it give?
Answer: -0.134

Question: With AAACACCG as the sequence, how does the “PBM E-score” value read?
Answer: 0.0265

Question: How did the “PBM E-score” value turn out when ACGATAGC was run?
Answer: 0.0994

Question: With ACGCATTC as the sequence, how does the “PBM E-score” value read?
Answer: -0.108

Question: Which “PBM E-score” value does the source give for CACAGATA here?
Answer: -0.00259

Question: With AATTCCGC as the sequence, how does the “PBM E-score” value read?
Answer: 0.172

Question: With AAAAGCAT as the sequence, how does the “PBM E-score” value read?
Answer: 0.104

Question: With GTGCGGAA as the sequence, how does the “PBM E-score” value read?
Answer: 0.111

Question: With GATTCAAC as the sequence, how does the “PBM E-score” value read?
Answer: 0.083

Question: How did the “PBM E-score” value turn out when ATGACCAC was run?
Answer: -0.115

Question: For GGACCATA, which “PBM E-score” value is on record?
Answer: -0.185

Question: With ACTTGAAA as the sequence, how does the “PBM E-score” value read?
Answer: 0.165

Question: For CCCATTCA, which “PBM E-score” value is on record?
Answer: 0.0145

Question: Which “PBM E-score” value does the source give for ACCGATGA here?
Answer: -0.193

Question: With ATACAACC as the sequence, how does the “PBM E-score” value read?
Answer: 0.0072

Question: How did the “PBM E-score” value turn out when CGTTTGGC was run?
Answer: 0.108

Question: How did the “PBM E-score” value turn out when CACGTAGA was run?
Answer: -0.159

Question: Which “PBM E-score” value does the source give for ATGGCCGC here?
Answer: -0.311

Question: How did the “PBM E-score” value turn out when AGGTTGTG was run?
Answer: -0.245

Question: For CGACTAAC, which “PBM E-score” value is on record?
Answer: 0.171

Question: GAACCCCA was tested. Which “PBM E-score” value did it give?
Answer: -0.133

Question: CCTACCAG was tested. Which “PBM E-score” value did it give?
Answer: -0.194

Question: How did the “PBM E-score” value turn out when GCATACTA was run?
Answer: 0.0596

Question: For CCTAGCTA, which “PBM E-score” value is on record?
Answer: -0.166

Question: With CACATTTA as the sequence, how does the “PBM E-score” value read?
Answer: 0.0662

Question: Which “PBM E-score” value does the source give for CAGAAAGA here?
Answer: 0.155

Question: CCGGGTCA was tested. Which “PBM E-score” value did it give?
Answer: -0.0622

Question: With TGAAATCA as the sequence, how does the “PBM E-score” value read?
Answer: 0.202

Reference: the supplement of paper PMC3334620
